Measurements taken from the supplement of paper PMC4604168 (melanoma cell lines).
Some of the results follow. Most values come without repeats; read them as rough.

System: WM3526
Assay: cell count relative to DMSO control; melanoma cells; higher = more viable cells
Conditions: library dose: standard library concentration; 72 h
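Note: cells treated in 1,536-well plates, then fixed and DAPI-stained, with nuclei counted from automated high-throughput microscope images.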

Row | SMILES | cell count [%]
1 | OCc1c[nH]c2ccccc12 [Indole-3-carbinol] + N#Cc1c(O)c2c(-c3ccc(-c4ccccc4O)cc3)csc2[nH]c1=O [A769662] (first compound 4 µM, partner dose 10 µM) | 107
2 | OCc1c[nH]c2ccccc12 [Indole-3-carbinol] + CCN(CC)CCCCNc1ncc2cc(-c3cc(OC)cc(OC)c3)c(NC(=O)NC(C)(C)C)nc2n1 [PD173074] (first compound 4 µM, partner dose 0.5 µM) | 119
3 | OCc1c[nH]c2ccccc12 [Indole-3-carbinol] + Oc1cc(-c2nc(-c3ccccc3)[nH]c2-c2ccncc2)ccc1Cl [L779450] (first compound 4 µM, partner dose 1 µM) | 50.7
4 | Clc1ccc(Nc2nnc(Cc3ccncc3)c3ccccc23)cc1 [vatalanib] + O=c1cc(-c2cccc3c2Sc2ccccc2S3)oc(N2CCOCC2)c1 [KU55933] (first compound 10 µM, partner dose 5 µM) | 61.2
5 | OCc1c[nH]c2ccccc12 [Indole-3-carbinol] + O=C1NC(=O)/C(=C/c2ccc(-c3ccc(F)cc3O)o2)S1 [AS252424] (first compound 4 µM, partner dose 5 µM) | 83.4
6 | OCc1c[nH]c2ccccc12 [Indole-3-carbinol] + CCc1ccc(CCOc2ccc(CC3SC(=O)NC3=O)cc2)nc1 [pioglitazone] (first compound 4 µM, partner dose 10 µM) | 85.5
7 | OCc1c[nH]c2ccccc12 [Indole-3-carbinol] + COc1ccc(-c2ccc3c(N4CCOCC4)nc(N4C[C@@H](C)O[C@@H](C)C4)nc3n2)cc1CO [KU0063794] (first compound 4 µM, partner dose 0.1 µM) | 91.8
8 | OCc1c[nH]c2ccccc12 [Indole-3-carbinol] + CCCCCCCCCCCC1=C(O)C(=O)C=C(O)C1=O [Embelin] (first compound 4 µM, partner dose 6 µM) | 104
9 | Clc1ccc(Nc2nnc(Cc3ccncc3)c3ccccc23)cc1 [vatalanib] + CCCCCCCCCCCC1=C(O)C(=O)C=C(O)C1=O [Embelin] (first compound 10 µM, partner dose 6 µM) | 88.6
10 | Clc1ccc(Nc2nnc(Cc3ccncc3)c3ccccc23)cc1 [vatalanib] + c1cc(-c2cnn3cc(-c4ccc(OCCN5CCCCC5)cc4)cnc23)ccn1 [Dorsomorphin] (first compound 10 µM, partner dose 2 µM) | 70.2
11 | Clc1ccc(Nc2nnc(Cc3ccncc3)c3ccccc23)cc1 [vatalanib] + CCc1ccc(CCOc2ccc(CC3SC(=O)NC3=O)cc2)nc1 [pioglitazone] (first compound 10 µM, partner dose 10 µM) | 79.3
12 | OCc1c[nH]c2ccccc12 [Indole-3-carbinol] + COC(=O)c1sccc1S(=O)(=O)Nc1ccc(Nc2ccccc2)cc1OC [GSK0660] (first compound 4 µM, partner dose 5 µM) | 119
13 | Clc1ccc(Nc2nnc(Cc3ccncc3)c3ccccc23)cc1 [vatalanib] + O=C(Nc1ccccc1)c1cc([N+](=O)[O-])ccc1Cl [GW9662] (first compound 10 µM, partner dose 10 µM) | 70.7
14 | OCc1c[nH]c2ccccc12 [Indole-3-carbinol] + c1cc(-c2cnn3cc(-c4ccc(OCCN5CCCCC5)cc4)cnc23)ccn1 [Dorsomorphin] (first compound 4 µM, partner dose 2 µM) | 94
15 | OCc1c[nH]c2ccccc12 [Indole-3-carbinol] + O=c1cc(-c2cccc3c2Sc2ccccc2S3)oc(N2CCOCC2)c1 [KU55933] (first compound 4 µM, partner dose 5 µM) | 91.5
16 | OCc1c[nH]c2ccccc12 [Indole-3-carbinol] + COc1cc2ncnc(Nc3ccc(Oc4ccccc4)cc3)c2cc1OC [SrcI1] (first compound 4 µM, partner dose 10 µM) | 78.7
17 | OCc1c[nH]c2ccccc12 [Indole-3-carbinol] + Cn1cc(/C=C2\C(=O)Nc3cccnc32)c2ccccc21 [GW441756] (first compound 4 µM, partner dose 2 µM) | 97.9
18 | OCc1c[nH]c2ccccc12 [Indole-3-carbinol] + Oc1nc(-c2ccc(C(F)(F)F)cc2)nc2c1CSCC2 [XAV939] (first compound 4 µM, partner dose 10 µM) | 116
19 | Clc1ccc(Nc2nnc(Cc3ccncc3)c3ccccc23)cc1 [vatalanib] + N#Cc1c(O)c2c(-c3ccc(-c4ccccc4O)cc3)csc2[nH]c1=O [A769662] (first compound 10 µM, partner dose 10 µM) | 87.2
20 | Clc1ccc(Nc2nnc(Cc3ccncc3)c3ccccc23)cc1 [vatalanib] + O=C(O)C(=O)Nc1sc2c(c1C(=O)O)CCNC2 [TCS401] (first compound 10 µM, partner dose 8.33333 µM) | 76.2
21 | Clc1ccc(Nc2nnc(Cc3ccncc3)c3ccccc23)cc1 [vatalanib] + COc1ccc(-c2ccc3c(N4CCOCC4)nc(N4C[C@@H](C)O[C@@H](C)C4)nc3n2)cc1CO [KU0063794] (first compound 10 µM, partner dose 0.1 µM) | 78.2
22 | Clc1ccc(Nc2nnc(Cc3ccncc3)c3ccccc23)cc1 [vatalanib] + CC(C)CCN1c2nc(Nc3cc(F)c(O)c(F)c3)ncc2N(C)C(=O)C1C [BID1870] (first compound 10 µM, partner dose 1 µM) | 63.3
23 | OCc1c[nH]c2ccccc12 [Indole-3-carbinol] + O=C(Nc1ccccc1)c1cc([N+](=O)[O-])ccc1Cl [GW9662] (first compound 4 µM, partner dose 10 µM) | 79.1
24 | Clc1ccc(Nc2nnc(Cc3ccncc3)c3ccccc23)cc1 [vatalanib] + Oc1nc(-c2ccc(C(F)(F)F)cc2)nc2c1CSCC2 [XAV939] (first compound 10 µM, partner dose 10 µM) | 76.8
25 | Clc1ccc(Nc2nnc(Cc3ccncc3)c3ccccc23)cc1 [vatalanib] + O=C1NC(=O)/C(=C/c2ccc(-c3ccc(F)cc3O)o2)S1 [AS252424] (first compound 10 µM, partner dose 5 µM) | 68.3
26 | Nc1cccc2c1CN(C1CCC(=O)NC1=O)C2=O (centres undefined) [lenalidomide] + COc1cc2c(Oc3ccc4[nH]c(C)cc4c3F)ncnc2cc1OCCCN1CCCC1 [cediranib] (first compound 5 µM, partner dose 2 µM) | 93.1
27 | Clc1ccc(Nc2nnc(Cc3ccncc3)c3ccccc23)cc1 [vatalanib] + COc1ccc(COc2ccc(Cc3cnc(N)nc3N)cc2OC)cc1 [GW2580] (first compound 10 µM, partner dose 5 µM) | 73.8
28 | COCC[n+]1c2c(n(Cc3cnccn3)c1C)C(=O)c1ccccc1C2=O + CN(C)S(=O)(=O)c1ccc2c(c1)/C(=C/c1cc3c([nH]1)CCCC3)C(=O)N2 [SU6656] (first compound 0.002 µM, partner dose 2 µM) | 52.5
29 | Clc1ccc(Nc2nnc(Cc3ccncc3)c3ccccc23)cc1 [vatalanib] + Cn1cc(/C=C2\C(=O)Nc3cccnc32)c2ccccc21 [GW441756] (first compound 10 µM, partner dose 2 µM) | 79.1
